Screen size: about 48,000 compounds; about 120 (0.25%) were called active. About 4% were inconclusive and are not listed. Calls follow the shape of the dose curve; as a rule, active = well fitted activation curve with a large enough effect; inconclusive = small, poorly fitted or top-dose-only effect, or another doubt; inactive = no such curve, though single readings can be large or run the other way. The list shows a part of the results.

The assay in a line: Primary qHTS for Identification of Small Molecule Activators of Huntingtin-Antisense Promoter Activity. Also: nearly all actives have a fitted effect of over 55% in size. The settings on record: HEK293 HTT-AS promoter firefly luciferase reporter, 24 h; series mostly up to 57.5 µM; activity change, positive = activation: at the top concentration. Summed up: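 HEK293 luciferase promoter-reporter cells (2,500/well) plated 24 h, then compounds added at up to 57.5 uM final for 24 h at 37 °C. Firefly luminescence by Dual-Glo, normalized to vehicle (0%) and zero RLU (-100%).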
On the technique in general: In qHTS, concentration-response curves come from the screen itself.
As to `COc1ccc(Cn2c(=O)c3oc4ccccc4c3n(Cc3ccc(Cl)cc3)c2=O)cc1`, the “activity change, positive = activation” value was inactive: -7.56%.

In the case of `CCOC(=O)c1c(C)[nH]c(C)c1S(=O)(=O)N1CCCC(C(=O)N2CCN(c3ccccc3)CC2)C1` (stereo not drawn), the “activity change, positive = activation” value was inactive: 7.78%.

Regarding `CCOCCc1nn2c(=O)cc(COC(=O)C3CCCCC3)nc2s1`, the “activity change, positive = activation” value was inactive: -6.87%.

For `Cc1ccc2c(=O)cc(C(=O)Nc3cccc(C(F)(F)F)c3)oc2c1C`, the activity change, positive = activation was inactive: 5.21% [at 11.5 µM, percent change from vehicle, -100% = no light].

Turning to `Cc1cccn2c(=O)c3cc(C(=O)NC(C)c4ccccc4)c(=N)n(CCCO)c3nc12` (stereo not drawn), the “activity change, positive = activation” value is inactive: 13.5%.

For the compound `Cc1ccc(NC(=O)CSc2nnc3scc(-c4ccccc4)n23)cc1`, the “activity change, positive = activation” value is inactive: -14.5%.

In the case of `O=C(Cn1nnc(-c2ccccc2Cl)n1)Nc1ccc(Br)cc1`, the “activity change, positive = activation” value was inactive: 4.64%.

For the compound `COC(=O)c1ccc(OCC2c3cc(OC)c(OC)cc3CCN2C(=O)c2ccc(F)cc2)cc1` (stereo not drawn), the “activity change, positive = activation” value is inactive: -21.4%.

In the case of `Cc1ccc2c(=O)cc(C(=O)Nc3sc4c(c3C(=O)NCc3cccnc3)CCCC4)oc2c1C`, the “activity change, positive = activation” value is inactive: 0.457%.

Consider `Fc1ccc(-c2noc3ncnc(NCCCN4CCN(c5ccccc5)CC4)c23)cc1`, for which the “activity change, positive = activation” value was inactive: -24.2%.

Take `O=c1oc2c(CN3CCN(CCO)CC3)c(O)ccc2cc1-c1ccccc1`: the “activity change, positive = activation” value is inactive: -9.83%.

Take `COc1cccc(NC(=O)CC2NCCNC2=O)c1` (stereo not drawn): the “activity change, positive = activation” value is inactive: -1.17%.

Turning to `COc1ccc(C(=O)NCC(c2ccc(N(C)C)cc2)N2CCc3ccccc32)c(OC)c1` (stereo not drawn), the “activity change, positive = activation” value was inactive: -21.3%.

For `COc1ccc(S(=O)(=O)NCC(c2ccco2)N2CCOCC2)cc1OC` (stereo not drawn), the “activity change, positive = activation” value was inactive: -16.4%.

Regarding `Cc1ccc(NC(=O)CCc2c(C)nc3cc(-c4ccccc4)nn3c2C)cc1F`, the “activity change, positive = activation” value is inactive: -70.9%.

As for `COc1ccc(-c2nc3c(C#N)c[nH]n3c2NC2CCCC2)c(OC)c1`, the “activity change, positive = activation” value was inactive: 0%.

Turning to `Cc1ccc(NC(=O)c2sc3nc4c(cc3c2N)CN(Cc2ccccc2)CC4)cc1`, the “activity change, positive = activation” value was inactive: 2.5%.

`CCN1C(=O)c2ccccc2Sc2ccc(NC(=O)c3ccc(Cl)cc3)cc21`: the “activity change, positive = activation” value is inactive: -5.09%.

With `Cc1oc2ncn(C)c(=O)c2c1C(=O)N1CCN(c2ccccc2F)CC1`, the “activity change, positive = activation” value was inactive: -11.6%.

Take `CCc1nn(Cc2ccc(Cl)cc2)c(=O)c2cc3cc(C)ccc3n12`: the “activity change, positive = activation” value is inactive: -6.8%.

As for `Cc1cccc(NS(=O)(=O)c2ccc3c(c2)C(C)(C)C(=O)N3C)c1`, the “activity change, positive = activation” value is inactive: -12.2%.

On to `CCOc1ccc(CN2CCc3nc(Nc4ccc(OC)cc4OC)ncc3C2)cc1`, for which the “activity change, positive = activation” value is inactive: -2.85%.

As for `O=C(NCCCN1CCN(c2ccc(F)cc2)CC1)c1ccc2nc(Cc3ccccc3)oc2c1`, the “activity change, positive = activation” value is inactive: -41.6%.

On to `COc1ccc2c(c1)c1c(c(=O)n(CCc3ccccc3)c(=O)n1Cc1ccc(F)cc1)n2C`, for which the “activity change, positive = activation” value was inactive: -19%.

With `Cc1ccccc1Cn1c(CN2CCC(C(=O)NCCc3ccccc3)CC2)cc2ccccc21`, the “activity change, positive = activation” value was inactive: -21.1%.

For `CCN(CC)CCCNC(=O)c1nn(C)c2c1CS(=O)(=O)c1ccccc1-2`, the “activity change, positive = activation” value was inactive: -8.92%.

On to `CCC(=O)Nc1cccc(C(=O)OCc2cc(=O)n3nc(CC)sc3n2)c1`, for which the “activity change, positive = activation” value was inactive: 11.7%.

In the case of `COc1ccc2c(c1)c1c(c(=O)n(-c3ccc(F)c(Cl)c3)c(=O)n1Cc1ccccc1C)n2C`, the “activity change, positive = activation” value is inactive: -15.1%.

With `COc1ccc(NC(=O)c2c(-c3ccc(C)cc3)nnc3ccccc23)c(OC)c1`, the “activity change, positive = activation” value was inactive: -10.5%.

Regarding `CCN(CC)c1nc2ccccc2nc1C(=O)Nc1cccc(C(C)=O)c1`, the “activity change, positive = activation” value is inactive: -25.4%.

As for `O=[N+]([O-])c1ccc(/C=N\O)o1`, the “activity change, positive = activation” value is inactive: -4.66%.

`S=C(NCc1ccc2c(c1)OCO2)N1CCN(c2ncnc3c2oc2ccccc23)CC1`: the “activity change, positive = activation” value is inactive: -16.3% [at 116 µM, percent change from vehicle, -100% = no light].

Turning to `CCSC1=NC2(CCN(C(=O)NC3CCCCC3)CC2)N=C1c1ccc(Cl)cc1`, the activity change, positive = activation was inactive: -4.15% [at 11.5 µM, percent change from vehicle, -100% = no light].

For the compound `COc1ccc(Cl)cc1-n1nnc(-c2nsc(NC(=O)c3ccccc3Cl)n2)c1C`, the “activity change, positive = activation” value was inactive: -5.03%.

As to `CCCSc1nc2sc3c(c2c(=O)n1Cc1ccccc1)CC(C)(CC)OC3` (stereo not drawn), the “activity change, positive = activation” value is inactive: -12.7%.

As for `Cc1ccc(NC(=O)C2CCC(CNS(=O)(=O)c3csc(C(N)=O)c3)CC2)cc1Cl` (stereo not drawn), the “activity change, positive = activation” value is inactive: -6.54%.

Take `COc1ccc(C2(CNC(=O)C(=O)Nc3ccc(F)cc3)CCCC2)cc1OC`: the “activity change, positive = activation” value is inactive: 1.95%.

As to `CCN(CC)CCCCNc1nc2cc(Cl)c(Cl)cc2nc1-c1ccc(-c2cccs2)s1`, the “activity change, positive = activation” value was inactive: -24.4%.

For the compound `CCc1ccccc1NC(=O)C(=O)NCC(c1cccnc1)N1CCN(c2ccccc2F)CC1` (stereo not drawn), the “activity change, positive = activation” value is inactive: -35.1%.

On to `CCOC(=O)c1c(S(=O)(=O)NCC(=O)Nc2cc(C)ccc2C)c(C)n(C)c1C`, for which the “activity change, positive = activation” value is inactive: -12.3%.

Take `CCc1nn(Cc2cc(C)ccc2C)c(=O)c2cc3cc(C)ccc3n12`: the “activity change, positive = activation” value was inactive: -15.2%.

On to `Cc1ccc(NS(=O)(=O)c2ccc3c(c2)CCCN3C(=O)C2CCC2)c(C)c1`, for which the “activity change, positive = activation” value is inactive: -12.6%.

`CCc1nn2c(=O)cc(COC(=O)c3ccco3)nc2s1`: the “activity change, positive = activation” value was inactive: 6.57%.

As to `CCOC(=O)C1CCN(S(=O)(=O)c2csc(C(N)=O)c2)CC1`, the “activity change, positive = activation” value was inactive: -32.6%.

As to `COc1ccc(N2CCN(C(=O)c3cc4c(s3)-c3ccccc3OC4)CC2)cc1`, the “activity change, positive = activation” value was inactive: -16.5%.

For the compound `COc1ccc(N2CC(NC(=O)c3ccc(Br)o3)CC2=O)cc1` (stereo not drawn), the “activity change, positive = activation” value is inactive: -15.5%.

For `CCOC(=O)N1CCc2c(sc(NCc3cc(OC)c(OC)cc3OC)c2C(=O)Nc2ccc(OCC)cc2)C1`, the “activity change, positive = activation” value was inactive: -23.2%.

`CS(=O)(=O)N(Cc1ccco1)CC(O)Cn1c2ccccc2c2ccccc21` (stereo not drawn): the “activity change, positive = activation” value is inactive: -25.2%.
